Out of some 310,000 compounds screened, about 14,000 (4.5%) showed an effect of 50% or more. The effect is printed as a negative number. This is one part of the list.
target: human ether-à-go-go-related gene (hERG) potassium channel (human, UniProt Q12809); experiment: primary screen, population patch clamp on CHO cells stably expressing hERG
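Also: peak tail current of the secondary pulse compared with the same well before compound.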

Chain of human ether-à-go-go-related gene (hERG) potassium channel (Q12809 whole entry, looked up): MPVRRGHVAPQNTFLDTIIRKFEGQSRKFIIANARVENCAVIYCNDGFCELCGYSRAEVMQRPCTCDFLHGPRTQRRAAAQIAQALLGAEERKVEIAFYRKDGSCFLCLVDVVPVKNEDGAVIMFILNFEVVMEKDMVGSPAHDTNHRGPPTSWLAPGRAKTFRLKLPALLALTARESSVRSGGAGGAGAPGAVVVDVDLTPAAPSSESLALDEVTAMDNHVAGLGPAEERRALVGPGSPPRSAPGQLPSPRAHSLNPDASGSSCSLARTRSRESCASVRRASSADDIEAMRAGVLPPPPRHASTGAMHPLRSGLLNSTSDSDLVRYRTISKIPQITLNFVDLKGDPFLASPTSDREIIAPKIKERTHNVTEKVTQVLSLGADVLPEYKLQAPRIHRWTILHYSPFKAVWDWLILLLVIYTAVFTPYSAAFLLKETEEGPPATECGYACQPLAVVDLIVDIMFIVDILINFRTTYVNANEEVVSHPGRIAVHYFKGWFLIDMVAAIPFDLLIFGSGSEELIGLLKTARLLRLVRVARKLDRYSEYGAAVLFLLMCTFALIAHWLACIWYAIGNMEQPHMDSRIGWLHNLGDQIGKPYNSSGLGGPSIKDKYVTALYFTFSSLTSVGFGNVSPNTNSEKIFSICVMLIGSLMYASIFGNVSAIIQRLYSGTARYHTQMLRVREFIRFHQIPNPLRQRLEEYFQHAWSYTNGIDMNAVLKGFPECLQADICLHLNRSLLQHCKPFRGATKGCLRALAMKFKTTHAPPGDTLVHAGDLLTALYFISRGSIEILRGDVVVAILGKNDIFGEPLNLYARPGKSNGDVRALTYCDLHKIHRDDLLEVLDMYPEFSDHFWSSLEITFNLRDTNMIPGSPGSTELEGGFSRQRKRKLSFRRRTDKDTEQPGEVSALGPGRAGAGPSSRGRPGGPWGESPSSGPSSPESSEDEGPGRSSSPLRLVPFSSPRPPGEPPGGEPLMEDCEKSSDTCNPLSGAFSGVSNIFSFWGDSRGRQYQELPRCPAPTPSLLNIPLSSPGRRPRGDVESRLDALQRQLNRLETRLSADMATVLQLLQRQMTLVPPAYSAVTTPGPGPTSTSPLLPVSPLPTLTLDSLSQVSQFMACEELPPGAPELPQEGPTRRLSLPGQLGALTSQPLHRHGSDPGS

Point of comparison: `O=C(NCc1ccc(F)cc1)C(=O)NCC1OCCN1C(=O)c1cccs1` (stereo not shown), “hERG current change (%, negative = inhibition) at 10uM” value -4.15%. Against it:
- CCC(C)C(=O)Nc1nnc(SCC(=O)NC(C)(C)C)s1 (stereo not shown) — higher, 24.6%
- COC(=O)c1ccc(NC(=O)CCS(=O)(=O)c2ccc(Br)cc2)cc1 — higher, 28.8%
- COCCCNC(=O)c1ccccc1Oc1ccccc1 — higher, -0.0631%
- COc1ccc2c(CC(=O)OCC(=O)Nc3ccc(C)cc3)coc2c1 — higher, -1.56%
- COc1cccc(-n2nnnc2SCC(=O)Nc2ccc(OC)cc2OC)c1 — lower, -30.3%
- CCOc1ccc(CCNC(=O)c2ccc(C)c(N3CCCC3=O)c2)cc1OCC — higher, 9.19%
- CCCN(CC(=O)Nc1ccccc1C)C(=O)c1ccc(S(=O)(=O)N2CCCCC2)cc1 — lower, -20.6%
- Cc1ccc(C(=O)/C=C/C(=O)c2ccc(C)cc2)cc1 — lower, -5.92%
- CN(C)S(=O)(=O)c1ccc(Cl)c(NC(=O)COC(=O)C2CSC3(C)CCC(=O)N23)c1 (stereo not shown) — lower, -6.02%
- COc1nc(Oc2ccc(=O)[nH]n2)nc(N2CCOCC2)n1 — lower, -9.56%
- COc1ccc(-n2nnnc2-c2cccnc2)cc1 — higher, 4.32%
- COC(=O)c1ccccc1NC(NC(=O)c1ccco1)C(=O)c1ccccc1 (stereo not shown) — higher, -0.578%
- COc1cc(C(=O)NCC(=O)NCCN2C(=O)S/C(=C\c3ccccc3Cl)C2=O)cc(OC)c1OC — lower, -27.6%
- Cc1csc(NC(=O)CCN2C(=O)c3ccccc3S2(=O)=O)n1 — higher, -2.41%
- COc1cccc(CC(=O)Nc2nc(-c3ccc(OC)c(OC)c3)cs2)c1 — higher, 15.4%
- CC(=O)c1ccc(NC(=O)c2ccc(CNc3c(N4CCCC4)c(=O)c3=O)cc2)cc1 — higher, 6.96%
- Cc1cccc(NC(=S)Nc2c(C)n(C)n(-c3ccccc3)c2=O)c1C — higher, -2.23%
- COc1ccc(C2C(C#N)=C(N)OC3=C2C(=O)CC(C)(C)C3)c([N+](=O)[O-])c1OC (stereo not shown) — lower, -44.5%
- COc1ccc(CCNc2nc(Cl)nc(NC(C)(C)CO)n2)cc1OC — higher, 25%
- Cc1cc(C)nc(NN2C(=O)/C(=C/c3ccccc3)SC2=S)n1 — higher, 5.58%
- CN1CCN(c2ccc(NC(=O)C(C)(c3ccccc3)c3ccccc3)cc2)CC1 — lower, -24.7%
- Cc1nc(-c2ccccc2)nc(Cl)c1Cl — higher, 9.95%
- CC(C)(C)OC(=O)N[C@H](C(=O)OC(C)(C)C)c1ccc(Br)cc1 — higher, -2.45%
- CCNc1nc(NC(C)(C)C)nc(SC(C(C)=O)C(C)=O)n1 — lower, -23.2%
- CS(=O)(=O)c1ccc2nc(NC(=O)c3ccc(=O)[nH]c3)sc2c1 — higher, 9.39%
- CCC1CCCCN1CCCn1c(=S)[nH]c2ccccc2c1=O (stereo not shown) — lower, -56.2%
- CC(Sc1nc(N)cc(=O)[nH]1)C(=O)Nc1sc2c(c1C#N)CCCC2 (stereo not shown) — higher, 1.55%
- Nc1c(Br)c(=O)[nH]c(=O)n1-c1ccc(F)cc1 — higher, 14.2%
- COC(=O)C(NC(C)=O)(Nc1nc2ccc(C)cc2s1)C(F)(F)F (stereo not shown) — higher, 11.5%
- CCOC(=O)c1ccc(NC(C)=O)c([N+](=O)[O-])c1 — higher, 7.41%
- O=C(NCc1ccccc1)c1n[nH]nc1-c1ccccc1O — lower, -4.54%
- CC(C)Cn1c(N)c(C(=O)CSc2ncccn2)c(=O)n(C)c1=O — higher, 6.81%
- COc1ccc(NC(=O)C(c2cc3c(cc2[N+](=O)[O-])OCO3)N(C)c2ccccc2)cc1 (stereo not shown) — higher, 5.65%
- CSc1ccc(C(=O)C2CCCN(C(=O)c3ccc4c(c3)OCO4)C2)cc1 (stereo not shown) — lower, -34%
- O=C(Nc1ccc(NC(=O)c2ccco2)nc1)c1cccc(F)c1 — higher, 17.2%
- Nc1nc(CSc2ccccc2)nc(N2CCCCC2)n1 — higher, -3.27%
- O=C(NC1CCCc2ccccc21)c1cccc(S(=O)(=O)N2CCN(c3ccccc3)CC2)c1 (stereo not shown) — higher, -4.06%
- Nc1nc2ccc(C(=O)NCCOC(=O)C3CCCCC3)cc2s1 — higher, 33.3%
- COc1ccccc1N1CCN(C(=O)c2cc(C(=O)N3CCN(c4ccccc4OC)CC3)cc([N+](=O)[O-])c2)CC1 — higher, -0.436%
- COC(=O)c1ccccc1NC(=O)N1CCN(C/C=C/c2ccccc2)CC1 — lower, -45.1%
- O=C(COC(=O)c1cc([N+](=O)[O-])ccc1N1CCOCC1)NCc1ccc(F)cc1 — lower, -53.7%
- O=C(NCc1ccccc1)C(c1cccnc1)N(C(=O)c1csnn1)c1ccccc1 (stereo not shown) — higher, -1.43%
- CCOC(=O)c1ccc(-c2c(-c3ccc4c(c3)OCO4)noc2-c2ccsc2)cc1F — higher, 4.06%
- CN(C)Cc1ccc(F)cc1Sc1cc(Cl)ccc1Cl.Cl — higher, 21.5%
- O=C(CN1CCN(Cc2cccc(F)c2)CC1)Nc1ccccc1F — lower, -55.9%
- COC(=O)c1sccc1NC(=O)c1c(C)noc1C — higher, -0.75%
- O=C(O)CNC(=O)c1ccccc1 — higher, 16.8%
- CCN(CC)CCOc1ncnc2c1oc1ccccc12 — lower, -39.1%
- NP(=O)(OCC(F)(F)F)Oc1ccc(Cl)cc1 (stereo not shown) — higher, 10.4%
- CCCC(C)NC(=O)CSCc1ccc(OC)cc1 (stereo not shown) — lower, -10.6%
- COCCCNC(=O)c1cccs1 — higher, 5.24%
- O=C1C(=O)N(CCCn2ccnc2)C(c2ccc(Cl)cc2)/C1=C(\O)c1ccc2c(c1)OCCO2 (stereo not shown) — higher, 23.4%
- CN(C(=O)c1ccc(NC(=O)Cc2ccc(NC(=O)C3CCN(C(=O)c4ccccc4)CC3)cc2)cc1)C1CC1 — higher, 13.9%
- Cc1nn(Cc2ccccc2)c(Cl)c1C(=O)NCc1ccco1 — higher, -0.682%
- Cc1onc(C(=O)Nc2sc3c(c2C(N)=O)CCCC3)c1[N+](=O)[O-] — lower, -15.4%
- CC(=O)Nc1ccc(S(=O)(=O)NCC(=O)NC(C)c2ccc(S(N)(=O)=O)cc2)cc1 (stereo not shown) — higher, 17.4%
- CN(C)/C=C/C(=O)C(Cl)(Cl)Cl — higher, 11.6%
- COc1cccc(N2CCN(CC(=O)NC3=Nc4ccccc4N=C(C)C3c3ccccc3)CC2)c1 (stereo not shown) — lower, -28.7%
- COc1cc(O)c(C(CC(=O)N2CCCC(C)C2)c2cc(OC)c(OC)c(OC)c2)c(OC)c1 (stereo not shown) — higher, 2.69%
- COC(=O)CSc1nc(C2CC2)nc2ccccc12 — lower, -11.5%
- COc1cccc(S(=O)(=O)Nc2ccc(C(=O)N3CCCCCC3)cc2)c1 — lower, -18.7%
- O=c1cc(C(F)(F)F)nc(SC/C=C/c2ccccc2)[nH]1 — higher, 18.6%
- COc1ccc(N(CC(=O)N2CCCCCC2)S(=O)(=O)c2ccccc2)cc1 — lower, -12.6%
- CCOC(=O)CNC(=S)N(Cc1ccco1)Cc1ccccc1Cl — lower, -19.6%
- CCCn1nnc(NC(=O)c2ccc(Br)o2)n1 — lower, -4.46%
- CCOc1ccc(CNC(=O)CN2C(=O)C(c3ccccc3)Oc3cccnc32)cc1 (stereo not shown) — higher, -3.6%
- O=S1(=O)C=C(N2CCCCC2)c2ccccc21 — lower, -23.7%
- Cc1ccccc1-c1cc(C(=O)NCc2cccc(C(F)(F)F)c2)nn1CC1CC(c2cccc([N+](=O)[O-])c2)=NO1 (stereo not shown) — lower, -4.4%
- O=c1[nH]c(C2CCN(S(=O)(=O)c3ccccc3)CC2)nc2c1nnn2Cc1ccccc1 — lower, -22.3%
- Cc1cc(C)nc(SCC(=O)c2ccc(F)cc2)n1 — higher, 10.6%
- Cc1cc(NC(=O)Cn2cnc3c(cnn3C(C)(C)C)c2=O)no1 — higher, 5.53%
- OC(COc1ccccc1)CN(Cc1ccccc1)CC(O)COc1ccccc1 (stereo not shown) — lower, -9.08%
- Cc1csc(NC(=O)c2ccc(C)c([N+](=O)[O-])c2)n1 — lower, -41.6%
- O=C1N=C(N2CCN(c3ccccc3)CC2)S/C1=C/c1cccs1 — lower, -49.3%
- COc1ccc(S(=O)(=O)Nc2ccccc2C(=O)N2CCCC2)cc1OC — higher, 6.92%
- CS(=O)(=O)/C(C#N)=C/c1cccn1S(=O)(=O)c1ccccc1 — higher, 7.15%
- C=CCn1cnc2c(oc3ccccc32)c1=O — higher, 4.04%
- Cc1cc(C)c(C#N)c(N2CCN(CCOc3ccc(Cl)cc3)CC2)n1 — lower, -33.6%
- O=C(CCCCC(=O)Nc1ccc(F)cc1)Nc1ccc(F)cc1 — higher, 18%
- O=C(NNC(=O)c1ccc(NC(=O)c2ccccc2)cc1)c1ccccc1 — higher, 16.3%
- COc1cc(C2c3c(oc4cc(C)c(C)cc4c3=O)C(=O)N2c2cc(C)ccn2)ccc1O (stereo not shown) — higher, 6.44%
- CCc1nnc(NC(=O)C2CCN(c3nc(C)cc(C)n3)CC2)s1 — higher, 14.4%
- O=C(NCc1ccccc1)C(=O)c1cn(CC(=O)N2CCOCC2)c2ccccc12 — higher, 19.6%
- Oc1cc2c(cc1CN1CCc3ccccc3C1)OCO2 — higher, -0.697%
- Cc1cccc(C)c1OCCCCCNCCO — higher, 5.08%
- O=C(N/N=C\c1cc2c(cc1Cl)OCO2)c1cccnc1 — higher, 4.34%
- O=C(CO/N=C/c1ccc(OC(F)F)cc1)NCc1ccco1 — lower, -51.8%

— paper PMC4336329 (PLoS ONE, 2015)
